# Data: article PMC12136788
# This is one part of the list.
# B1: chr6:136999970:137001557:-|three_prime_utr|ENSG00000016402|control|control|control (ssRNA)
# RNA: GGGAGUUCUACAGUCCGACGAUCAAGUUUUUUCCAGUUUGUCAGUGUCUGUGAGAAUUACUUAUUUCUUUUCUCUAUUCUCAUAGCACGUGUGUGAUUGGUUCAUGCAUGUAGGUCUCUUAACAAUGAUGGUGGGCCUCUGGACAACAGAGGAUUGAGCAUCA
# B2: chr1:17067826:17067927:-|3pUTR|ENSG00000117115|msi1|total|mutant (ssRNA)
# RNA: GGGAGUUCUACAGUCCGACGAUCCCAGAUUCAUUCCCUGGCUCCAACUGAAAAGACUCAGUUUCAAUCGUUAAAAGUUCCUUCCGGGCCAGAAGAAUAAAUGAAUUAUAAUCCCAUUUUGAAGAACCGAUUUAUAACCAAUGACAACAGAGGAUUGAGCAUCA
# B3: chr6:37331633:37331734:+|3pUTR|ENSG00000065491|unk|total|mutant (ssRNA)
# RNA: GGGAGUUCUACAGUCCGACGAUCCCGUUCCCCUUCUGCCCCAGUCUGAGCCAGUGAGGGGCCGCUUUUUAAAACCAUUAUUCCCGAUGGAGGAGGCACUGAUGCUUGUAACUCUGGAAAGAGGCCUACACCCAAGGGCCCGGACAACAGAGGAUUGAGCAUCA
# B4: ENSG00000124766:be:win_1501|3pUTR|ENSG00000124766|bound_else_gene|NA|bound_elsewhere_windowed (ssRNA)
# RNA: GGGAGUUCUACAGUCCGACGAUCGACAGACGAAGAGUUUAAAGAGAAAAGGGAAAAAAGAAAGAAAAAGUAAGCAGGGCUGGCUUCGCCCGCGUUCUCGUCGUCGGAUCAAGGAGCGCGGCGGCGUUUUGGACCCGCGCUCCCCAACAGAGGAUUGAGCAUCA
# B5: chr20:59938049:59938150:-|3pUTR|ENSG00000132825|unk|FALSE|unique (ssRNA)
# RNA: GGGAGUUCUACAGUCCGACGAUCAAGUUUGAAACUAAGCAUUUUAAGAAGUCUUGCCUCAGUUAUUUCAGUUUUCAGGUGACUAGAGAAUUUCAGGCAACAGUGCCCUUUGCAAUUACCUUUUUGAUGAUUAAGGUGACUAUUCAACAGAGGAUUGAGCAUCA
# B6: chr3:64018827:64018930:-|CDS|ENSG00000163636|unk|FALSE|unique (ssRNA)
# RNA: GGGAGUUCUACAGUCCGACGAUCUGAACUCAUGGAUUAUAAAACAUUUGUGACUUAUACUGUCUAUGUCAGUAUGAUUGCCUUAGAAAGACCAGAUCUCAGGGAAAAGGUAAUGACCAAACUUUAAUACUCAAAUUUAAAGACCAACAGAGGAUUGAGCAUCA
# B7: chr1:35190724:35191005:-|CDS|ENSG00000116560|unk|total|mutant (ssRNA)
# RNA: GGGAGUUCUACAGUCCGACGAUCGCCCUUUCUGUUCGUAAUCUUUCACCUUAUGUUUCCAAUGAACUGUUGGAAGAAGCCUUCCGCCAAUUUGGUCCUAUUGAAAGGGCUGUUGUAACCGUGGAUGAUCGUGGAAGAUCUACACAACAGAGGAUUGAGCAUCA
# B8: chr17:81509976:81510077:-|3pUTR|ENSG00000184009|msi1|total|mutant (ssRNA)
# RNA: GGGAGUUCUACAGUCCGACGAUCUCUCGAUUCUUUGAAGAGAUGACAACAAAUUUUGGUUUUCUACUGUUAUGUGAGAACAUCCGGCCCCAGCAACACGUCAUUGUGUAAGGAAAAAUAAAAGUGCUGCCGUAACCAAUGAAUCAACAGAGGAUUGAGCAUCA
# B9: chr12:6965580:6965681:-|3pUTR|ENSG00000215021|unk|total|mutant (ssRNA)
# RNA: GGGAGUUCUACAGUCCGACGAUCGUCAUUAUCUAUCUUUUUUUUCCUACAGUGACAGCCUCAUCAAGGGUAAGAAAUGAGCCCCGUCACCAAGAACUCCACCCCCAGAGGAAGUGGAUCUGCUUCUCCAGUUUUUGAGGAGCCCAACAGAGGAUUGAGCAUCA
# B10: chrX:30854639:30854752:-|CDS|ENSG00000157625|unk|FALSE|bound_elsewhere (ssRNA)
# RNA: GGGAGUUCUACAGUCCGACGAUCUUCAGCUCUCCACAGCAUCAAGUGCAACCUUCCCAGUUGGGCCACAUCUUUAUGCCACCUAGUCCUUCAACUACUCCACCCCAUCCAUAUCAACAAGGACCUCCUAGCUAUCAGAAACAGCAACAGAGGAUUGAGCAUCA
# B11: chr7:74121655:74121756:+|3pUTR|ENSG00000106683|msi1|FALSE|unique (ssRNA)
# RNA: GGGAGUUCUACAGUCCGACGAUCGCCCCUUUCCACACGCCGCUGCCCCAGCAACCCUGUUCACGCUCCACCUGUCUGGUCCAUAGCUCCCUGGAGGCUGGGCCAGGAGGCAGCCUCCGAACCAUGCCCCAUAUAACGCUUGGGCAACAGAGGAUUGAGCAUCA
# B12: ENSG00000198589:be:win_3701|CDS|ENSG00000198589|bound_else_gene|NA|bound_elsewhere_windowed (ssRNA)
# RNA: GGGAGUUCUACAGUCCGACGAUCAGGCUUCUUCUGAGCAAAAGAUUGCGAAGUUGGAUGUUUCCAAUGUUGCUACAGAUACUGAGAGGCUGGAGUUGAAGGCCAGUCCCAACGUGGAAGCACCUCAACCUCAUCGACAUGUGCCAACAGAGGAUUGAGCAUCA
# B13: chr4:25747873:25747886:-|3pUTR|ENSG00000091490|msi1_unk|FALSE|overlapping (ssRNA)
# RNA: GGGAGUUCUACAGUCCGACGAUCUAGCAGUUAUAAGGCACCUUGAAAUAAAUUGUUUGUGCCUGGAAAUGCAGGGAGGGCAAUAGCUUUGUAAAUUGGUUUACAUUUUUCUCCUUGAAUUUUUCUAGGGUCCUAGUGCUUCCGCAACAGAGGAUUGAGCAUCA
# B14: chr6:36855602:36855703:-|3pUTR|ENSG00000137168|msi1|total|mutant (ssRNA)
# RNA: GGGAGUUCUACAGUCCGACGAUCGUCAUGAAGCUCCGGAGGCCUGGCAUCUUGGGUGAGUCCGAGAUGGAAGUACAUUUUAACCGGAUGCUUCUUUUCUCUUCCCCCAGUGCCCCGGUUGCCAGAGCAUUUGCACAAAUGCCCCAACAGAGGAUUGAGCAUCA
# B15: ENSG00000198589:be:win_1901|CDS|ENSG00000198589|bound_else_gene|NA|bound_elsewhere_windowed (ssRNA)
# RNA: GGGAGUUCUACAGUCCGACGAUCGUGGUAUCACCCCAAAAGGAUUAGAUGGACCGCGACCUAAUCAAAAAGAAAUGCUUUCUCUACGAGCAUUCUUGUUGAUGUUCAUUAAGCAAUUAGUGAUGAAGGAUUCUGGAGUAAAGGCAACAGAGGAUUGAGCAUCA
# B16: ENSG00000198589:be:win_6051|CDS|ENSG00000198589|bound_else_gene|NA|bound_elsewhere_windowed (ssRNA)
# RNA: GGGAGUUCUACAGUCCGACGAUCAGAUGAAGAUAUCCUUGCUAAAGGAAAACAGUCCAUCAGGAGUCAGGCUUUAGGAAAUCAGAACUCAGAAAACGAGAUCCUCCUGGAAGGCGAUGAUGAUACUCUGUCAUCCGUGGAUGACAACAGAGGAUUGAGCAUCA
# B17: chr9:34664162:34665309:-|three_prime_utr|ENSG00000187186|control|control|control (ssRNA)
# RNA: GGGAGUUCUACAGUCCGACGAUCGGACCCGCCCCGGGCAUGGACGGGACUCAGUCUCUGAGGACCCAUCGGGGGGAAUCCGGUAGCUCCCGCCCCGCCUCAUGCCAGUGUCGGGUCGCCCCACAGCUCGGCGCACCCCGGGGACAACAGAGGAUUGAGCAUCA
# B18: ENSG00000198589:be:win_9251|3pUTR|ENSG00000198589|bound_else_gene|NA|bound_elsewhere_windowed (ssRNA)
# RNA: GGGAGUUCUACAGUCCGACGAUCGGAAAUGCUCUUGAGCUCACAACAUUUGUUUUUCUUUUAAAGUAAAUGCAAGUACCAAAGCUCACUACUGCGGUUUGCCUGUGCCUGGACAAUGAGGCGGAGCCACUGUUGUUUUGUUGGCAACAGAGGAUUGAGCAUCA
# B19: chr15:34752480:34753372:-|CDS|ENSG00000159248|control|control|control (ssRNA)
# RNA: GGGAGUUCUACAGUCCGACGAUCCCCCUGCAUCAAGGAGGUGGAAUGUUAUGUGUCCCGGCCAACUGAGAAGACUGUCUUUCUAGUGUUCAUGUUUGCUGUAAGUGGCAUCUGUGUUGUGCUCAACCUGGCUGAACUCAACCACAACAGAGGAUUGAGCAUCA
# B20: chr11:128839127:128840264:-|CDS|ENSG00000151704|control|control|control (ssRNA)
# RNA: GGGAGUUCUACAGUCCGACGAUCAAGACAGUGGAAGUGGAGACCCCUCACUGUGCCAUGUGCCUUUAUAAUGAGAAAGAUGUUAGAGCCAGGAUGAAGAGAGGCUAUGACAACCCCAACUUCAUCUUGUCAGAAGUCAAUGAACAACAGAGGAUUGAGCAUCA
# B21: chr3:53865378:53865479:+|3pUTR|ENSG00000056736|unk|FALSE|unique (ssRNA)
# RNA: GGGAGUUCUACAGUCCGACGAUCAUUACAGGGAAAAAACGUGUGAUGAUCCUGAAGCUUACUAUGCAGCCUACAAACAGCCUUAGUAAUUAAAACAUUUUAUACCAAUAAAAUUUUCAAAUAUUGCUAACUAAUGUAGCAUUACAACAGAGGAUUGAGCAUCA
# B22: chr1:207898972:207899226:-|CDS|ENSG00000174059|control|control|control (ssRNA)
# RNA: GGGAGUUCUACAGUCCGACGAUCACAACCUUGAAGCCUAGCCUGUCACCUGGAAAUGUUUCAGACCUUUCAACCACUAGCACUAGCCUUGCAACAUCUCCCACUAAACCCUAUACAUCAUCUUCUCCUAUCCUAAGUGACAUCCAACAGAGGAUUGAGCAUCA
# Target: MSI1 full-length (mouse, UniProt Q61474 1-362)
# Assay: nsRBNS (natural sequence RNA bind-n-seq); RBNS binding buffer (assumed for nsRBNS): 25 mM Tris pH 7.5, 150 mM KCl, 3 mM MgCl2, 0.01% Triton X-100, 500 ug/ml BSA, 20 U/ml SUPERase-In, 4 C; UNK is unkempt and MSI1 is Musashi-1; names of the RNAs are library labels; protein concentration not given here; high values mean tight binding
# Chain of UniProt Q61474 (Q61474 whole entry): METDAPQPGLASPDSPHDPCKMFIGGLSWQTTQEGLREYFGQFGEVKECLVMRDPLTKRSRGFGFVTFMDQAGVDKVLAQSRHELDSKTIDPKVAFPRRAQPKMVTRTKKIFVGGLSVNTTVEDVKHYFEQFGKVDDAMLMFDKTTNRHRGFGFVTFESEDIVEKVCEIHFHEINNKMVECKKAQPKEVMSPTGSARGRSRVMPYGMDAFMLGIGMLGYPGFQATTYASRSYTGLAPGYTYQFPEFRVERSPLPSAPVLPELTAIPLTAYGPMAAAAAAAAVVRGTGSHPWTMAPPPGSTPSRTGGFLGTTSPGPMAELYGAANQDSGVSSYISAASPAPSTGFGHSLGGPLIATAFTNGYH
row,Binder,binding signal [enrichment R]
1,B1,0.793
2,B2,0.488
3,B3,0.474
4,B4,0.527
5,B5,0.865
6,B6,0.403
7,B7,0.356
8,B8,0.215
9,B9,0.924
10,B10,1.34
11,B11,1.06
12,B12,0.294
13,B13,1.14
14,B14,0.299
15,B15,0.39
16,B16,0.27
17,B17,0.3
18,B18,0.354
19,B19,0.35
20,B20,0.364
21,B21,0.374
22,B22,4.77
